Assay results from paper PMC7819943, “Rice protein-binding microarrays: a tool to detect cis-acting elements near promoter regions in rice”.
The other results are listed elsewhere or left out.

target: T1, OsWOX13 (Oryza sativa, UniProt Q5QMM3 1-267); test: protein-binding microarray (RPBM); PBS, 2% BSA, 51.3 ng/ul salmon testes DNA, 50 uM zinc acetate, 200 nM TF, 25 C, 1 h; high values mean tight binding; conditions: protein: recombinant; tags: N-terminal polyhistidine and DsRed monomer fusion (pET32a); label: CyDye5-dUTP incorporated in the synthesized complementary strand; 3' TTTTT single-stranded linker to array surface; dsDNA, one strand shown
T1 sequence: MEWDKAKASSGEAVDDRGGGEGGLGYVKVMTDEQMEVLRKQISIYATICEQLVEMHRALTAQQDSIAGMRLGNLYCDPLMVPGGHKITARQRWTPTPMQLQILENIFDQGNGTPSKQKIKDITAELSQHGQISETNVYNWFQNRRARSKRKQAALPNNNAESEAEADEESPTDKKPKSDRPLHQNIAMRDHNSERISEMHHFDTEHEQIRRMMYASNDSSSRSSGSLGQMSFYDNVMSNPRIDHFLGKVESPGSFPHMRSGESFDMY
Summary of the method: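 Binding signal is reported as fluorescence intensity per feature (arbitrary units) from an Axon 4000B scanner. Incubation used 200 nM of each Ni–NTA-purified, N-terminally polyhistidine- and DsRed-fused transcription factor from E. coli BL21-CodonPlus on a double-stranded custom Agilent array for 1 h at 25 °C, with 50 µM zinc acetate in the buffer, followed by washing.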

Sequence	binding signal
ATAGTTAGACGGGCGTAATGATTGAAAAGCCTAAGCAAATCGGAGTCACCTAGTGCAG	24700 fluorescence intensity (a.u.)
TCCTGATTCCCCGAATTATACCGTCCAGTTGCTCTCCTCCCGGAGTCACCTAGTGCAG	3170 fluorescence intensity (a.u.)
AAAATAGATAATTGCCTTCTTTCAGTCACCCATAAAAGTACGGAGTCACCTAGTGCAG	8890 fluorescence intensity (a.u.)
CTGATTATGAGATAGGATAAGAAGATTGTACGTTTGAGAACGGAGTCACCTAGTGCAG	7170 fluorescence intensity (a.u.)
GGTGTAATTAACCATTAGGCAGAATTGCTTCGATATTATCCGGAGTCACCTAGTGCAG	20300 fluorescence intensity (a.u.)
ATGTAATTGAGATACATGGGCCTCTAGTGGGCCGACTGGCCGGAGTCACCTAGTGCAG	22100 fluorescence intensity (a.u.)
AAAGCCCCATGATTACATAAACGGGGACAGGTTTGTGATGCGGAGTCACCTAGTGCAG	5370 fluorescence intensity (a.u.)
AGTGTATAAATTACCGCCTAATTATGAAAGATCATCCAATCGGAGTCACCTAGTGCAG	8910 fluorescence intensity (a.u.)
GTTTAATTAGCGGCAGCGGAGCTCGCCTTGGTCTCGCTTTCGGAGTCACCTAGTGCAG	10900 fluorescence intensity (a.u.)
AGGTGCAAATTGACTCCTTAAGTGGTTTTGAAAATATGTACGGAGTCACCTAGTGCAG	11100 fluorescence intensity (a.u.)
CCAAACAGCTGTTAACATTCCATGTTTTCTTAGAGCTCTCCGGAGTCACCTAGTGCAG	4020 fluorescence intensity (a.u.)
ATTAATAAATTCAGCCAATTAGTTGGAGTACGACTTTGAGCGGAGTCACCTAGTGCAG	12500 fluorescence intensity (a.u.)
ATCAATACAGATCAAATTAATGTATCCCACTCAGGGCAATCGGAGTCACCTAGTGCAG	4590 fluorescence intensity (a.u.)
AAAGGTTGTGGTTAATTAGTTAACGACCAATCGAGCCTACCGGAGTCACCTAGTGCAG	4380 fluorescence intensity (a.u.)
GTGTGATTAGCATGCCCCAGACCGGAAGGTGAAGCTGCTACGGAGTCACCTAGTGCAG	36200 fluorescence intensity (a.u.)
ACGACTGTAATTATTTTGGAACGGAGGTAGCAGTGATTTTCGGAGTCACCTAGTGCAG	4120 fluorescence intensity (a.u.)
GCCATAAATTGAACACTGAAATCTAGCAGTCTAAGTGGCACGGAGTCACCTAGTGCAG	35200 fluorescence intensity (a.u.)
TTGGATTTGGGTTAATTTGCTTGATGTATGGTGGACGGATCGGAGTCACCTAGTGCAG	17200 fluorescence intensity (a.u.)
GAGAATTTTGTAATTTGAATTGAGTAAATTTCATCATTAGCGGAGTCACCTAGTGCAG	15300 fluorescence intensity (a.u.)
ACCGTTGATGATACCTGATCTTGTGATGTTCTTACCTGTTCGGAGTCACCTAGTGCAG	4430 fluorescence intensity (a.u.)
GCTAATTTGGTTTGAGATCTAAATTGACCTTACCAATATTCGGAGTCACCTAGTGCAG	16900 fluorescence intensity (a.u.)

Sequence	binding signal
ATTAAATGCACTAATTTGCATTACAAAATTAATTAATACACGGAGTCACCTAGTGCAG	26600 fluorescence intensity (a.u.)
TTTTAGTAAATTAATAAATATTTATTTTGTTATTTAATACCGGAGTCACCTAGTGCAG	13200 fluorescence intensity (a.u.)
TTTGATGGAACATAAACCAAAATTTGAATAGAAAATTATCCGGAGTCACCTAGTGCAG	7760 fluorescence intensity (a.u.)
CTGATTAACGTGAGAGCTTGTAGAAAGTGCCCAATTAGTACGGAGTCACCTAGTGCAG	9890 fluorescence intensity (a.u.)
ACTTTGAAGATATTGACTGGAACAGTAACCTTGCTGCAGACGGAGTCACCTAGTGCAG	5740 fluorescence intensity (a.u.)
TTGCTAAATTGTTGTCTTGGTTGATATTTTAGATTTCTTGCGGAGTCACCTAGTGCAG	10000 fluorescence intensity (a.u.)
TGTTTAATTTGTTTATTTTAACTTGAAGAAGTTGAATTTTCGGAGTCACCTAGTGCAG	12800 fluorescence intensity (a.u.)
TATTTTGACAAATTAAACTACTGCTATAGTATGGCATCAACGGAGTCACCTAGTGCAG	5500 fluorescence intensity (a.u.)
GTATTTGATTTGTGTGCGATGTGAACTTGTGATGTATTTGCGGAGTCACCTAGTGCAG	25400 fluorescence intensity (a.u.)
CCATAATTGGACTACATCTCCATTTATAACAGGGGATTCGCGGAGTCACCTAGTGCAG	41100 fluorescence intensity (a.u.)
AATGAAATTAATTTGGTATATTAGATATTACTAGAACAAACGGAGTCACCTAGTGCAG	8940 fluorescence intensity (a.u.)
CAGTGTTAATTGGATGTGACTTTATGCAGCTATTATGTATCGGAGTCACCTAGTGCAG	47200 fluorescence intensity (a.u.)
ATCCATCAAATCAACCACACTAATTACTCCATCATTTAATCGGAGTCACCTAGTGCAG	13600 fluorescence intensity (a.u.)
CGTAAATTTTCAATAAAATTTTAGTGAAATCAGGAATATGCGGAGTCACCTAGTGCAG	17500 fluorescence intensity (a.u.)
AAGATTTGTCTCATAAATTAGTCGCAATATGTGTAATTAGCGGAGTCACCTAGTGCAG	7560 fluorescence intensity (a.u.)
GAGATTAACTGAAAGCTGGTGGCCATCATTTGCAATGCTGCGGAGTCACCTAGTGCAG	17800 fluorescence intensity (a.u.)
TTTTATTTTGAATTTTGATTAATGTCGTATTGGCTTCCTACGGAGTCACCTAGTGCAG	4180 fluorescence intensity (a.u.)
GCCGACTAATTGGTGCCAGCGCCGGAACAGGCAATAATAGCGGAGTCACCTAGTGCAG	14800 fluorescence intensity (a.u.)
TTTAATATGACATATTTAATTAGTCTTAATAAATTCGTCTCGGAGTCACCTAGTGCAG	20700 fluorescence intensity (a.u.)
TCTTTGACAGAAGTACTTGCTCCTGTCATTTTCAGTGCTACGGAGTCACCTAGTGCAG	8110 fluorescence intensity (a.u.)
AACAAAATAAATTATCTTTTGGATGCTGCCGCGAAATTCACGGAGTCACCTAGTGCAG	4100 fluorescence intensity (a.u.)
